Assay results reported in the supplement of paper PMC4967469.
The IC50 comes from the fitted curve, where viability falls to half of the control; a fit beyond the top or the lowest dose is shown as a bound at that dose. For AUC the same curve is integrated over the 256-fold range of doses and scaled to a fraction; the more sensitive the line, the further below 1. For some assays here: Any top dose called inferred comes from the curve model; the source does not state it.

How the values were obtained:
Experiment in all cases: Viability of human cancer cell lines after 72 h of drug (GDSC screen)
Phenformin = compound: N=C(N)NC(=N)NCCc1ccccc1 [Phenformin]; details: top dose 4000 µM; top dose inferred
Method: (§1)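 Human cancer cell lines in 384-well plates, medium with 10% serum, drug for 72 h over a 256-fold dose range (nine 2-fold or five 4-fold steps up to the top dose). Adherent lines were fixed and stained with the nucleic acid dye Syto60, suspension lines read with resazurin; signal relative to control wells, capped at 0 and 100%. One two-parameter sigmoid per drug and line, fitted in a mixed model over all curves with the slope shared within a line.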

WHI-P97 = compound: COc1cc2ncnc(Nc3cc(Br)c(O)c(Br)c3)c2cc1OC [WHI-P97]; details: top dose 10.24 µM; top dose inferred
Method: as §1

AG-014699 = compound: CNCc1ccc(-c2[nH]c3cc(F)cc4c3c2CCNC4=O)cc1 [AG-014699]; details: top dose 5 µM; top dose inferred
Method: as §1

S-Trityl-L-cysteine = compound: N[C@@H](CSC(c1ccccc1)(c1ccccc1)c1ccccc1)C(=O)O [S-Trityl-L-cysteine]; details: top dose 5.12 µM; top dose inferred
Method: as §1

QL-XI-92 = compound: C=CC(=O)Nc1cc(NC(=O)c2ccc(C)c(NC(=O)c3ccno3)c2)cc(C(F)(F)F)c1 [QL-XI-92]; details: top dose 10.24 µM; top dose inferred
Method: as §1

Gefitinib = compound: COc1cc2ncnc(Nc3ccc(F)c(Cl)c3)c2cc1OCCCN1CCOCC1 [Gefitinib]; details: top dose 0.5 µM
Method: as §1

Vinorelbine = compound: CCC1=C[C@@H]2CN(C1)Cc1c([nH]c3ccccc13)[C@@](C(=O)OC)(c1cc3c(cc1OC)N(C)[C@H]1[C@@](O)(C(=O)OC)[C@H](OC(C)=O)[C@]4(CC)C=CCN5CC[C@]31[C@@H]54)C2 [Vinorelbine]; details: top dose 0.064 µM; top dose inferred
Method: as §1

NU-7441 = compound: O=c1cc(N2CCOCC2)oc2c(-c3cccc4c3sc3ccccc34)cccc12 [NU-7441]; details: top dose 2 µM; top dose inferred
Method: as §1

EHT 1864 = compound: O=c1cc(CN2CCOCC2)occ1OCCCCCSc1ccnc2cc(C(F)(F)F)ccc12 [EHT 1864]; details: top dose 10 µM; top dose inferred
Method: as §1

XL-184 = compound: COc1cc2nccc(Oc3ccc(NC(=O)C4(C(=O)Nc5ccc(F)cc5)CC4)cc3)c2cc1OC [XL-184]; details: top dose 5.12 µM; top dose inferred
Method: as §1

| Cell Line | AUC (Phenformin) | IC50 (Phenformin) [µM] | AUC (WHI-P97) | IC50 (WHI-P97) [µM] | AUC (AG-014699) | IC50 (AG-014699) [µM] | AUC (S-Trityl-L-cysteine) | IC50 (S-Trityl-L-cysteine) [µM] | AUC (QL-XI-92) | IC50 (QL-XI-92) [µM] | AUC (Gefitinib) | IC50 (Gefitinib) [µM] | AUC (Vinorelbine) | IC50 (Vinorelbine) [µM] | AUC (NU-7441) | IC50 (NU-7441) [µM] | AUC (EHT 1864) | IC50 (EHT 1864) [µM] | AUC (XL-184) | IC50 (XL-184) [µM] |
| --- | --- | --- | --- | --- | --- | --- | --- | --- | --- | --- | --- | --- | --- | --- | --- | --- | --- | --- | --- | --- |
| NCI-H847 (small cell lung carcinoma, adherent) | 0.871 | 2600 | 0.94 | > 10.2 | 0.993 | > 5 | 0.626 | 0.661 | 0.797 | 3.83 | 0.993 | > 0.5 | 0.462 | 0.00321 | 0.984 | > 2 | 0.982 | > 10 | 0.864 | 3.14 |
| NCI-H1092 (small cell lung carcinoma, suspension) | 0.957 | > 4000 | 0.984 | > 10.2 | 0.987 | > 5 | 0.933 | > 5.12 | 0.939 | > 10.2 | 0.987 | > 0.5 | 0.862 | 0.0558 | 0.99 | > 2 | 0.989 | > 10 | 0.972 | > 5.12 |
| NCI-H1155 (large cell lung carcinoma, suspension) | 0.712 | 871 | 0.978 | > 10.2 | 0.963 | > 5 | 0.818 | 2.26 | 0.94 | > 10.2 | 0.982 | > 0.5 | 0.977 | > 0.064 | 0.945 | > 2 | 0.915 | > 10 | 0.928 | > 5.12 |
| NCI-H1304 (small cell lung carcinoma, suspension) | 0.63 | 590 | 0.987 | > 10.2 | 0.987 | > 5 | 0.865 | > 5.12 | 0.942 | > 10.2 | 0.973 | > 0.5 | 0.765 | 0.0252 | 0.962 | > 2 | 0.979 | > 10 | 0.987 | > 5.12 |
| NCI-H1395 (lung adenocarcinoma, adherent) | 0.943 | > 4000 | 0.98 | > 10.2 | 0.853 | > 5 | 0.872 | > 5.12 | 0.956 | > 10.2 | 0.98 | > 0.5 | 0.862 | > 0.064 | 0.952 | > 2 | 0.758 | 4.55 | 0.968 | > 5.12 |
| NCI-H1417 (small cell lung carcinoma, suspension) | 0.124 | < 15.6 | 0.972 | > 10.2 | 0.922 | > 5 | 0.858 | > 5.12 | 0.916 | > 10.2 | 0.978 | > 0.5 | 0.764 | 0.0275 | 0.969 | > 2 | 0.869 | > 10 | 0.965 | > 5.12 |
| NCI-H1436 (small cell lung carcinoma, suspension) | 0.782 | 1930 | 0.985 | > 10.2 | 0.984 | > 5 | 0.711 | 1.39 | 0.935 | > 10.2 | 0.985 | > 0.5 | 0.745 | 0.0227 | 0.985 | > 2 | 0.97 | > 10 | 0.896 | > 5.12 |
| NCI-H1648 (lung adenocarcinoma, adherent) | 0.675 | 796 | 0.84 | 7.68 | 0.945 | > 5 | 0.632 | 0.757 | 0.93 | > 10.2 | 0.893 | > 0.5 | 0.524 | 0.00468 | 0.974 | > 2 | 0.943 | > 10 | 0.919 | > 5.12 |
| NCI-H1869 (lung squamous cell carcinoma, adherent) | 0.758 | 1560 | 0.862 | > 10.2 | 0.985 | > 5 | 0.873 | > 5.12 | 0.981 | > 10.2 | 0.93 | > 0.5 | 0.895 | > 0.064 | 0.936 | > 2 | 0.966 | > 10 | 0.975 | > 5.12 |
| NCI-H1876 (small cell lung carcinoma, adherent) | 0.841 | 2820 | 0.987 | > 10.2 | 0.918 | > 5 | 0.744 | 1.61 | 0.955 | > 10.2 | 0.978 | > 0.5 | 0.854 | 0.0515 | 0.837 | 1.36 | 0.935 | > 10 | 0.922 | > 5.12 |
| NCI-H2081 (small cell lung carcinoma, suspension) | 0.838 | 2930 | 0.989 | > 10.2 | 0.985 | > 5 | 0.974 | > 5.12 | 0.945 | > 10.2 | 0.97 | > 0.5 | 0.824 | 0.0411 | 0.983 | > 2 | 0.958 | > 10 | 0.989 | > 5.12 |
| NCI-H2141 (small cell lung carcinoma, suspension) | 0.788 | 1700 | 0.99 | > 10.2 | 0.99 | > 5 | 0.856 | 3.96 | 0.988 | > 10.2 | 0.991 | > 0.5 | 0.806 | 0.0315 | 0.99 | > 2 | 0.978 | > 10 | 0.952 | > 5.12 |
| NCI-SNU-16 (stomach, suspension) | 0.875 | 3160 | 0.99 | > 10.2 | 0.989 | > 5 | 0.711 | 1.16 | 0.991 | > 10.2 | 0.981 | > 0.5 | 0.883 | 0.0545 | 0.987 | > 2 | 0.926 | > 10 | 0.991 | > 5.12 |
